In PubChem BioAssay AID1508642 (National Center for Advancing Translational Sciences (NCATS), 2021):
Out of some 43,000 compounds screened, about 200 (0.47%) were called active. Roughly 12% stayed inconclusive and do not appear here. Calls follow the shape of the dose curve; as a rule, active = well fitted cell-killing curve with a large enough effect; inconclusive = small, poorly fitted or top-dose-only effect, or effect the other way; inactive = flat fitted curve, though single readings scatter. The list shows a part of the results.

Experiment: Cell viability qHTS assay in S16 Pmp22-F2sN cells; also: nearly all actives have a fitted effect of over 65% in size
Details: S16 Pmp22-F2sN Schwann cells (luciferase reporters placed in the Pmp22 gene) viability, CellTiter-Glo, 24 h; series mostly up to 57.5 µM; activity change, negative = cytotoxicity: at the top concentration
In short: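 Seed 500-1,000 S16 Pmp22-F2sN cells per well in phenol-red-free DMEM with 10% heat-inactivated FBS; pin-add 23 nL compound; incubate 24 h at 37C; add CellTiter-Glo, wait 15 min protected from light; read luminescence.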
% is scaled to controls: 0 for no effect and ±100 for the full control effect.

Structure (SMILES)	activity change, negative = cytotoxicity
CCn1c(=O)n(-c2ccc(F)c(Cl)c2)c(=O)c2sc3ccccc3c21	inactive: 5.87%
COC(=O)c1ccccc1NC(=O)COCc1cc(-c2cccs2)on1	inactive: 5.66%
COc1cccc(-n2ccn(CC(=O)Nc3ccccc3F)c(=O)c2=O)c1	inactive: 7.99%
COc1ccc2c(c1)c(CC(=O)Nc1cccc(F)c1C)c(C)n2C(=O)c1ccc(Cl)cc1	inactive: 1.43%
O=C(Nc1ccc(F)c(F)c1)c1cc(S(=O)(=O)N2CCc3ccccc32)ccc1F	inactive: -5.59%
Cc1ccc(CNC(=O)CSCc2nc(-c3ccc(Cl)cc3)oc2C)cc1	inactive: 3.06%
CCc1ccccc1NC(=O)Cn1cc(C(=O)c2ccc(Cl)cc2)c(=O)c2ccc(C)nc21	inactive: 1.3%
Cc1ccc(CNS(=O)(=O)c2cc(C(=O)Nc3ccc(C(C)C)cc3)ccc2F)cc1	inactive: -21.6%
COc1ccc(C2=C(C)C(N3CCC(C(=O)NCc4ccco4)CC3)=NS2(=O)=O)cc1	inactive: 3.81%
COCCCNC(=O)CSc1nc2cc3c(cc2c(=O)n1CCCCCC(=O)NCCc1ccc(OC)c(OC)c1)OCO3	inactive: 3.34%
CCc1nn2c(=O)cc(COC(=O)c3cccc(NC(=O)c4ccccc4C)c3)nc2s1	inactive: 4.34%
COc1ccc2c(CNC3CCCC3)c(C(=O)O)n(Cc3ccccc3C)c2c1	inactive: 1.17%
Cc1ccccc1NC(=O)CN1C(=O)C2(SCC(=O)N2c2ccc(F)cc2)c2ccccc21 (stereo not given)	inactive: -11.1%
Cc1cc(C)c2c(=O)cc(C(=O)Nc3sc4c(c3C#N)CCCC4)oc2c1	inactive: 8.3%
O=C(NCc1ccc(F)cc1)c1ccc2c(c1)N(Cc1c(F)cccc1Cl)C(=O)CS2	inactive: 14.4%
CC1=C(c2ccc(C)cc2)S(=O)(=O)N(Cc2ccc(C(=O)NCc3ccccc3)cc2)C1=O	inactive: 1.45%
Cc1ccc(C(=O)Nc2nnc(S(=O)(=O)N(C)Cc3ccco3)s2)cc1	inactive: 0.912%
CCn1cc(C(=O)NCCc2ccc(OC)c(OC)c2)c(=O)c2cc(S(=O)(=O)N3CCOCC3)ccc21	inactive: 1.59%
CC1CCN(S(=O)(=O)c2ccc3c(ccn3CC(=O)NCc3ccccc3F)c2)CC1	inactive: -7.52%
Cc1cccc(-n2nnc(-c3nc(-c4ccccc4)no3)c2N)c1C	inactive: -11.3%
Cc1ccc(C)c(NC(=O)CN2CCN(C3CCCCC3)C(=O)C2=O)c1	inactive: 3%
COc1cccc(CNC(=O)c2ccc3c(c2)nc2n3CCOC2)c1OC	inactive: 2.51%
Cc1ccc(-c2noc(C(C)NC(=O)c3ccco3)n2)cc1 (stereo not given)	inactive: -26.5%
CCc1nc2c(cnn2-c2ccc(C)cc2)c(=O)n1-c1ccc(C)cc1	inactive: 0.0066%

Structure (SMILES)	activity change, negative = cytotoxicity
COc1ccc(-c2nc(SCC(=O)NCC3CCCO3)c(-c3ccc(C)cc3)[nH]2)cc1OC (stereo not given)	inactive: 1.87%
COc1ccc(C)cc1NS(=O)(=O)c1ccc2c(c1)CCCN2C(C)=O	inactive: 1.61%
COc1ccc(-c2c(C#N)c(SCC(=O)Nc3ccc(C)c(C)c3)nc(C)c2C(=O)Nc2ccccc2)cc1OC	inactive: -0.579%
Cc1ccc(N(C)S(=O)(=O)c2nnc(NC(=O)c3ccco3)s2)cc1	inactive: 4.08%
COc1ccc(NC(=O)N2CCN(Cc3nc4ccc(C)cc4o3)CC2)cc1OC	inactive: -1.61%
CCCCNC(=O)CN1CCN(c2ccc(NC(=O)c3ccc(OC)cc3)cc2C(=O)O)CC1	inactive: 1.46%
O=C(NCc1ccc(Cl)cc1)c1cc2cccc3c2n1CCS3	inactive: 1.13%
COc1ccc(CNC(=O)C2CCN(C(=O)N3CCOc4ccc(C)cc43)CC2)cc1	inactive: -17.2%
Cc1cccc(NC(=O)Cn2c(=O)n(Cc3nc(-c4ccccc4)no3)c(=O)c3ccccc32)c1	inactive: -18.6%
COC(=O)c1sccc1S(=O)(=O)N(CC(=O)NCc1ccc(F)cc1)c1ccccc1	inactive: 12.4%
Cc1cccc(-n2c(=O)c3c(c4cc(C)ccc4n3C)n(CC(=O)Nc3ccc(C)c(C)c3)c2=O)c1	inactive: 8.16%
CC(C)(C)NC(=O)Cn1cc(S(=O)(=O)Cc2ccccc2Cl)c2ccccc21	inactive: -1.17%
COc1ccccc1N1CCN(c2c3c(nc4nncn24)CCC3)CC1	inactive: -19.5%
CC1CCN(S(=O)(=O)c2ccc3c(c2)N(CC(=O)N(C)Cc2ccccc2)C(=O)CO3)CC1	inactive: 3.84%
Cn1cnc(S(=O)(=O)N2CCC(C(=O)Nc3ccc(OC(F)(F)F)cc3)CC2)c1	inactive: 4.44%
O=C(CCCc1nc(-c2ccc(Cl)cc2)no1)NCc1ccco1	inactive: 5.2%
CCCCN1C(C(=O)c2ccccc2)=C(OC(=O)CC)c2ccccc2S1(=O)=O	inactive: -27.6%
COc1cc(C2c3c(-c4ccccc4O)n[nH]c3C(=O)N2Cc2ccncc2)cc(OC)c1OC (stereo not given)	inactive: 5.56%
Cc1ccccc1CN1C(=O)C(O)(c2c[nH]c3ccccc23)c2cc(Cl)ccc21 (stereo not given)	inactive: 1.33%
COc1cccc(CNC(=O)C2CCCN(c3nn4cc(-c5ccc(C)cc5)nc4s3)C2)c1 (stereo not given)	inactive: 6.97%
O=c1c2sc3ccccc3c2n(Cc2cccc(Cl)c2)c(=O)n1Cc1ccc(F)cc1	inactive: 2.59%
O=C(c1ccc2c(c1)N(Cc1ccccc1)C(=O)c1ccccc1S2(=O)=O)N1CCC(Cc2ccccc2)CC1	inactive: 7.17%
Cc1cc(C)c(NC(=O)Cn2nnc3sc4c(c3c2=O)CCC(C(C)(C)C)C4)c(C)c1 (stereo not given)	inactive: 9.08%
Cc1nnc(N2CCCC(C(=O)Nc3cc(F)ccc3F)C2)c2nn(-c3ccccc3)c(C)c12 (stereo not given)	inactive: -2%

Structure (SMILES)	activity change, negative = cytotoxicity
CC1CCN(c2nc3ccccc3nc2SCC(=O)Nc2ccccc2C(C)C)CC1	inactive: -3.29%
O=C(NC1(C(F)(F)F)N=C(c2ccccc2)N(Cc2ccccc2)C1=O)c1ccc(F)cc1 (stereo not given)	inactive: -28.5%
CCOc1ccc(CCNC(=O)c2cc3n(n2)CCCN(Cc2ccc(C)cc2)C3=O)cc1OCC	inactive: -10.2%
Cc1cc(-c2ccc(C)c(S(=O)(=O)Nc3ccc(C)c(N(C)C)c3)c2)on1	inactive: -26%
O=C(CS(=O)(=O)c1cccc2nsnc12)N1CCN(c2ccc(F)cc2)CC1	inactive: -2.48%
CC(=O)c1ccc(NC(=O)Cn2c(=O)nc(-c3ccccc3)c3ccccc32)cc1	inactive: 4.66%
COc1cc(NC(=O)COCc2cc(-c3ccc4c(c3)OCO4)on2)c(OC)cc1Cl	inactive: 7.36%
CCOc1ccc(C(=O)c2cn(CC(=O)Nc3ccc(C)c(Cl)c3)c3ccc(OCC)cc3c2=O)cc1	inactive: -2.54%
CCCCC(=O)OCc1cc(=O)n2nc(C3CC3)sc2n1	inactive: 29.9%
COc1ccc(-c2nc(CSCC(=O)NCCc3ccc(OC)c(OC)c3)c(C)o2)cc1	inactive: -23.5%
Cc1sc(NC(=O)C2c3ccccc3Oc3ccccc32)c(C(=O)OC(C)C)c1C	inactive: 2.98%
CC(C)NC(=O)C1=CC(c2ccc3c(c2)OCO3)=NS(=O)(=O)N1C	inactive: -4.26%
COc1ccccc1CNC(=O)c1cc2cccc3c2n1CCS3	inactive: -0.124%
CCCSc1ncc(Cl)c(C(=O)NCc2ccc(C)cc2)n1	inactive: -1.02%
COc1ccc(CNC(=O)CCS(=O)(=O)c2cc3c4c(c2)CCN4C(=O)CC3)cc1OC	inactive: -20.2%
Cc1c(C(=O)N2CCCC2)oc2c1-c1nn(CC(=O)NCc3ccccc3F)cc1CC2	inactive: -18.5%
COc1ccc(C2C(C(=O)Nc3cccnc3)=C(C)Nc3nc(-c4ccc(OC)c(OC)c4)nn32)cc1 (stereo not given)	inactive: -5.73%
COc1ccc2c(c1)c(=O)c(S(=O)(=O)c1ccc(F)cc1)cn2CC(=O)Nc1ccc(C)cc1C	inactive: 13.5%
COc1ccc(CN(C(=O)Nc2cc(C)ccc2C)C2CCN(C(C)=O)CC2)cc1	inactive: -3.29%
COc1cc(NS(=O)(=O)c2ccc(NC(=O)COc3ccc(Cl)cc3Cl)cc2)nc(OC)n1	inactive: 18.8%
CCOc1cccc(CC(=O)NCc2ccc3c(c2)CCN3C(=O)c2cccc(C)c2)c1OCC	inactive: -25.5%
O=C(CCNS(=O)(=O)c1ccc(Br)s1)Nc1ccc(Br)cc1	inactive: 1.09%
Cc1ccc(CNCc2ccc3c(c2)n(C)c(=O)n3C)cc1	inactive: 2.64%
c1ccc(Nc2c(-c3ccccc3)nc3ncccn23)cc1	inactive: -0.276%

Structure (SMILES)	activity change, negative = cytotoxicity
CCC(CC)C(=O)N1CCc2cc(OC)c(OC)cc2C1COc1ccc2c(C)cc(=O)oc2c1 (stereo not given)	inactive: 3.22%
CCOc1ccc2nc(N(Cc3cccnc3)C(=O)c3ccco3)sc2c1	inactive: -10.4%
O=C(c1cc(S(=O)(=O)N2CCCC2)c[nH]1)N1CCN(c2cccc(Cl)c2)CC1	inactive: -8.62%
CCOc1ccccc1N(CC)C(=O)Cn1ncc2c1-c1ccccc1OC2	inactive: 3.31%
CCOc1ccc(NC(=O)CSc2nc(-c3ccccc3)c3cc(OCC)ccc3n2)cc1	inactive: 1.21%
COc1ccc(CNC(=O)c2cnc3sc4cc(OC)ccc4n3c2=O)cc1	inactive: 0.992%
O=C(NCc1ccccc1Cl)C(=O)NCC(c1ccc2c(c1)OCO2)N1CCOCC1 (stereo not given)	inactive: -2.5%
Cc1nc(-c2ccccc2)sc1-c1ccc(SCC(=O)Nc2ccccc2)nn1	inactive: 14%
Cc1ccc(NC(=O)c2ccc(F)c(S(=O)(=O)NCCc3ccccc3)c2)cc1F	inactive: -26.9%
Cc1oc(-c2cccc(Br)c2)nc1CN1CCC(C(=O)NCc2ccccc2)CC1	inactive: 5.21%
O=C(NCc1ccccc1Cl)c1cc(-c2ccccc2)n[nH]1	inactive: -12.7%
COCCn1c(CCC(=O)Nc2ccc(OC)c(OC)c2)nc2cccnc21	inactive: 11.4%
O=C(Cn1c2ncccc2c(=O)n1-c1ccccc1)NCc1ccccc1	inactive: 4.05%
Cc1cc(C)cc(NC(=O)CSc2nccn2C2CCCC2)c1	inactive: 4.95%
CCc1ccc(NC(=O)N2CCN(c3nnc(C)c4c(C)n(-c5ccc(Cl)cc5)nc34)CC2)cc1	inactive: -26.4%
COc1cccc(NC(=O)c2csc3c2CCCCC3)c1	inactive: -1.27%
COc1cccc(C2C(C(N)=O)=C(C)Nc3nc(CCCO)nn32)c1 (stereo not given)	inactive: 13.1%
COc1cccc(CNC(=O)Cc2c(C)c3cc4c(C)coc4cc3oc2=O)c1	inactive: 7.1%
COc1ccc(CCNc2ncnc3c2cnn3-c2ccc(F)cc2)cc1	inactive: -8.19%
Cc1ccc(Cl)cc1NC(=O)Cn1nnc2sc3c(c2c1=O)CCC(C(C)(C)C)C3 (stereo not given)	inactive: 8.97%
Cc1cccc(N(C)S(=O)(=O)c2nnc(NC(=O)C(C)(C)C)s2)c1	inactive: -1.98%
COc1ccc(OC)c(CNC(=O)c2cc3c(=O)oc4ccc(C)cc4c3s2)c1	inactive: 0.233%
COc1ccc(N(Cc2cc3cc(OC)ccc3[nH]c2=O)C(=O)c2cccc(Cl)c2)cc1	inactive: 2.69%
